# Measurements published in the BET-seq Pho4 binding data (Le et al. 2018).
# The list shows a part of the results. Values were computed here from the reads of four pooled replicates and scatter widely.
# Biological target: T1, Pho4 (S. cerevisiae) (UniProt P07270)
# T1 sequence: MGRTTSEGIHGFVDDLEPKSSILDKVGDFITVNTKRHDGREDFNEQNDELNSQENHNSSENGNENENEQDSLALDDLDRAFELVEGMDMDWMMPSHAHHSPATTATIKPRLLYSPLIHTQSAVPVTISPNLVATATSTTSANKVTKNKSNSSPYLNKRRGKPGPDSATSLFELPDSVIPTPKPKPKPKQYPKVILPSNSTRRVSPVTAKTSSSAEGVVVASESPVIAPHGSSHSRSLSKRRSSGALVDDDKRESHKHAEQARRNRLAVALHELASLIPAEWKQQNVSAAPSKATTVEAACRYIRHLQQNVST
# Experiment: relative binding free energy (BET-seq); higher = weaker binding
# Conditions: reference: library average
row,Sequence,relative binding free energy [kcal/mol]
1,GGTGACACGTGGCATT,-0.09
2,ATTTACACGTGATCGT,0.09
3,TTAGCCACGTGAAGGT,0.11
4,CATGGCACGTGTGGAT,-0.08
5,ATGCGCACGTGCAGGT,-0.18
6,TGACTCACGTGGGTTA,0.03
7,TTTGTCACGTGCAAGT,0.09
8,ATTTTCACGTGTTAGT,0.18
9,GTCGTCACGTGGTAGA,0.04
10,GTCGTCACGTGGTTGG,0.05
11,CGTTGCACGTGTGGAG,0.02
12,TGAAGCACGTGGTAAT,-0.16
13,AGGAACACGTGTGGAT,0.08
14,TCGTTCACGTGGTTAA,0.12
15,ATTCACACGTGATGTT,0.21
16,TTTGCCACGTGGAGTA,-0.13
17,GTTTTCACGTGTTCTT,0.35
18,ATGAGCACGTGATTGT,-0.02
19,GGTTCCACGTGTGGTT,0.14
20,CTTTGCACGTGTCGGG,-0.03
21,GGGCTCACGTGACTGG,0.37
22,TGTAGCACGTGGGCGC,-0.31
23,TTAATCACGTGCCTTT,0.17
24,GGGCTCACGTGGGTAT,0.19
25,GTGTGCACGTGGCCGG,0.01
26,GTGCACACGTGGTGTC,0.27

row,Sequence,relative binding free energy [kcal/mol]
1,TTTGGCACGTGATTGC,0.01
2,CTTGACACGTGGGTTA,-0.25
3,TGGATCACGTGTCTGT,0.09
4,TGGTTCACGTGCCGGA,0.28
5,AGTTACACGTGTGGTC,0.2
6,GTGGGCACGTGGTGTA,-0.15
7,TAAAGCACGTGTTGTG,-0.21
8,AGTGTCACGTGATAAT,0.11
9,TCTTGCACGTGAGTTG,0.27
10,AGCCACACGTGGGGGG,-0.14
11,TTCGACACGTGGTAAT,-0.01
12,GGAGACACGTGGGCTT,-0.01
13,AAATACACGTGTTGAG,0.16
14,GGCTGCACGTGCGGCG,-0.04
15,TATAACACGTGCTGGT,-0.12
16,TTGCGCACGTGGAGGT,-0.2
17,GTCTGCACGTGATGTA,0.17
18,GCGGTCACGTGGGTGA,0.07
19,TGGTGCACGTGGGAAC,-0.18
20,GGTTGCACGTGGGCTT,-0.03
21,GTGTTCACGTGGCTAG,0.11
22,AGGAACACGTGTCGGG,0.01
23,GGGGACACGTGTTAGA,0.28
24,AAGTCCACGTGATGGG,0.15
25,CGTTTCACGTGGAAGA,0.35
26,TGTCACACGTGTTGGC,0.05

row,Sequence,relative binding free energy [kcal/mol]
1,TGATACACGTGGTCTT,0.1
2,GGGGCCACGTGAGTGC,0.17
3,AGTCGCACGTGAAGTG,0.21
4,ACTGGCACGTGGGAGA,-0.19
5,GATTTCACGTGTTTAT,0.3
6,ATTAGCACGTGGTGCG,-0.14
7,GGGGGCACGTGGTCGG,-0.21
8,GTTGGCACGTGTTGAC,0.01
9,GTTTGCACGTGTTCTA,0.11
10,GGAAACACGTGAGGGT,0.19
11,GAGGGCACGTGGGATC,-0.03
12,TGGTTCACGTGCCGTG,0.21
13,TTAGACACGTGGGTCA,-0.12
14,TTCATCACGTGGCAGT,0.14
15,TTGAGCACGTGATGAG,0.04
16,ATGTTCACGTGGTGGC,0.19
17,ATTATCACGTGATTGT,0.25
18,GGGTGCACGTGTCAGG,0.11
19,AAGAGCACGTGGGGAA,-0.26
20,AGCGTCACGTGTGTTA,0.05
21,CGGGGCACGTGTACGT,-0.11
22,TTTTGCACGTGATCAA,0.06
23,TTGCTCACGTGGGAAG,0.32
24,TGGTTCACGTGACATG,0.21
25,GGATACACGTGTGGAA,0.25
26,TTTGTCACGTGTCATC,0.11

row,Sequence,relative binding free energy [kcal/mol]
1,GGTAGCACGTGCCGTG,-0.06
2,TTATGCACGTGACGGT,0.01
3,AAGATCACGTGGGTGA,-0.02
4,GAGTGCACGTGTACTG,-0.01
5,TGCCTCACGTGGTTGT,0.09
6,TGGAACACGTGTGGGC,0.1
7,GGTTACACGTGGGACG,0.11
8,TGAATCACGTGGTTAG,0.14
9,TTATGCACGTGGTAGA,-0.11
10,GATTGCACGTGTGCTT,0.17
11,GTCTGCACGTGGTGGT,0.04
12,GTGGGCACGTGCGGGA,-0.21
13,GGGTACACGTGCTTAT,0.15
14,TGGAGCACGTGAATGG,0.27
15,TGCAGCACGTGGTTTT,-0.21
16,GGGATCACGTGTCGGA,0.18
17,TTAAGCACGTGGGTAA,-0.2
18,AATGACACGTGTGTAG,0.03
19,ATAGTCACGTGTTGCA,0.13
20,GGACTCACGTGTTGAG,0.21
21,TGTGCCACGTGATGGG,0
22,CAGCTCACGTGGGGGT,0.13
23,CGTGTCACGTGATATT,0.22
24,GATTTCACGTGGTTTA,0.23
25,CTGCACACGTGGGTTT,0.1
26,TGAGACACGTGTTAGG,0.08

row,Sequence,relative binding free energy [kcal/mol]
1,TGTTGCACGTGCGGAG,-0.05
2,TTTCTCACGTGTAGAA,0.32
3,AAGGACACGTGTTGAT,0.02
4,TGGTTCACGTGACTTA,0.2
5,TGTGCCACGTGCTAGG,-0.2
6,TTGCCCACGTGTTGTT,-0.11
7,ACTGTCACGTGTTTGG,0.06
8,CGGGTCACGTGTAGAA,0.19
9,GGGGACACGTGATTGC,0.2
10,ATATGCACGTGGCTGG,-0.11
11,TTATGCACGTGTGTAC,-0.04
12,TGTACCACGTGTGGGA,-0.05
13,TACGGCACGTGTGTGC,-0.06
14,ACTGGCACGTGTGGAT,-0.01
15,TAATTCACGTGTTGGG,0.31
16,GTGTCCACGTGAGGTG,0.18
17,GGCATCACGTGCGGGT,0.18
18,TGTGACACGTGCAAGT,-0.05
19,GGTAACACGTGAAGTT,0.45
20,GGCAGCACGTGTTTAT,0.14
21,TTGCACACGTGATTTT,0.21
22,GTGCTCACGTGTGGAT,0.29
23,GTTTGCACGTGATGGG,0.26
24,GTGTTCACGTGAACTG,0.23
25,ATCTTCACGTGTTGGC,0.25
26,AGTAGCACGTGTGGGG,-0.08

row,Sequence,relative binding free energy [kcal/mol]
1,TTGTACACGTGCATTA,0.07
2,GGTTACACGTGTCTGA,0.18
3,TGCAGCACGTGTAGGT,-0.05
4,GGGGCCACGTGTCGGT,-0.19
5,AAGCTCACGTGTGTGT,0.05
6,CTCTTCACGTGTGTTT,0.36
7,TTAGACACGTGAGGAG,0.18
8,GTAGGCACGTGTTGAA,0
9,AGTTACACGTGCGGGG,0.22
10,AGATCCACGTGTGAGT,0.25
11,CGGTTCACGTGGGATT,0.2
12,GTAGGCACGTGTGGTT,0.03
13,ATGTTCACGTGGCAGG,0.16
14,TAAGTCACGTGGAATT,0.11
15,TGCTTCACGTGAATGT,0.33
16,TATAGCACGTGGTGAT,-0.23
17,TATTGCACGTGTCATG,-0.12
18,TTCTACACGTGCGTGG,0.07
19,GTTGACACGTGGTGAA,0.07
20,CGAGTCACGTGTTGCG,0.09
21,GGTGACACGTGATGGT,0.16
22,TATTGCACGTGAAGAT,-0.01
23,TTCATCACGTGTGCAT,0.26
24,GGGTGCACGTGTGCTC,0
25,TTCTGCACGTGTCTTG,0
26,GGGGTCACGTGGAATT,0.29

row,Sequence,relative binding free energy [kcal/mol]
1,TTCTGCACGTGGGGTA,-0.19
2,CATTTCACGTGGAGCG,0.4
3,GAGGACACGTGTTTGT,0.06
4,GCGGTCACGTGTTGTA,0.08
5,TTGGCCACGTGGGATA,-0.28
6,CTGTGCACGTGGTCAT,-0.04
7,CGCCGCACGTGGGGGG,-0.25
8,TTTAACACGTGGCGTT,0.05
9,TGTCGCACGTGTGATA,0.02
10,CGTGTCACGTGTTTGT,0.2
11,ATAGGCACGTGGGGGG,-0.2
12,TTTTCCACGTGTGCGT,0.08
13,GTTGCCACGTGTATTT,-0.09
14,TGGCGCACGTGTGATA,0.16
15,ATCGTCACGTGTTATG,0.17
16,GTATACACGTGTAGGG,0.03
17,ATCTTCACGTGTTGCA,0.31
18,TGTCACACGTGGGGGG,0
19,GGTGACACGTGGTGCT,-0.05
20,GTGATCACGTGACAGT,0.31
21,CTCATCACGTGTGGTT,0.17
22,GCGGGCACGTGTGGAT,-0.19
23,TACGGCACGTGTGAAG,0.01
24,TTTGTCACGTGTAGGT,0.04
25,GTGGTCACGTGCGGTT,0.08
26,GATCTCACGTGTTAGG,0.3

row,Sequence,relative binding free energy [kcal/mol]
1,AGTGGCACGTGATAGA,-0.02
2,GACTGCACGTGGGGGG,-0.09
3,TGCCGCACGTGGAGTG,-0.11
4,TTCGTCACGTGGGTAT,0.05
5,TTCATCACGTGGTTAG,0.15
6,AATATCACGTGGGAAA,0.17
7,TTACTCACGTGCGTTT,0.12
8,GCTTTCACGTGTGGCG,0.13
9,CGAGGCACGTGCAGGG,-0.15
10,GGTATCACGTGCACGT,0.24
11,AGAGCCACGTGTGGAG,-0.08
12,GGTATCACGTGTAGGT,0.12
13,CGGTCCACGTGGGCGG,-0.13
14,ATGGTCACGTGAGGAA,0.27
15,TTGAGCACGTGGGGTG,-0.28
16,GGCGGCACGTGCATGT,-0.05
17,CTGGACACGTGAGGTT,0.23
18,TTTGTCACGTGACGGG,0.23
19,ATGGTCACGTGGCGAA,-0.01
20,GTGTGCACGTGAGAGC,0.37
21,TTATTCACGTGGGTAT,0.17
22,ATCGACACGTGGTGGT,-0.07
23,TGTGGCACGTGGGTAT,-0.25
24,ATGAACACGTGGTGGG,0.01
25,AAGGTCACGTGATGGC,0.15
26,TGGCGCACGTGGTCGA,-0.2

row,Sequence,relative binding free energy [kcal/mol]
1,GGTTACACGTGTAGCT,0.16
2,AGGGTCACGTGAATTC,0.44
3,GGACGCACGTGATGGT,0.03
4,TGTTACACGTGTCGGA,0.04
5,TCGGGCACGTGGAAAG,-0.03
6,ATTTGCACGTGCGGGG,-0.07
7,CTGGTCACGTGATAGT,0.14
8,TGAGTCACGTGGTTAT,0.07
9,TATGGCACGTGTCTAT,-0.12
10,CAAGTCACGTGGCGGG,0.13
11,CGTTTCACGTGCTGTT,0.16
12,AGCAACACGTGTGGGT,-0.05
13,ATAGTCACGTGGTGCG,-0.04
14,GTGAGCACGTGAGTTG,0.24
15,GTGTTCACGTGCGGAT,0.24
16,TATTTCACGTGAGGGG,0.34
17,TGGTACACGTGGTTAG,-0.04
18,TTAAGCACGTGGATGC,0.04
19,AGCTTCACGTGATGGT,0.27
20,GTAGGCACGTGAAGGA,0.17
21,GTTTACACGTGTTGTG,0.03
22,TAATCCACGTGGTGGA,-0.03
